# Source: the supplement of paper PMC8728848
# Some of the results follow.
# B1: LBL-152 (Laetiporus bicolor), B0D650 (protein)
# chain: MSNEYNPPLGIAFRLCGLASDRVLFSRVSPSPEVFHHPKSEVYPDQWFVAIPGSGQNAGCYAIKSKNTGKVLFSRMSPDPRVGHIDGDGKYPDNWFKFEAGSGKYAGYFRLRAVASDTVLVSRTSTGTDTQVINYPATSAKYDDQYFTILFDHHHHHH
# How the values were obtained:
# Test in all cases: glycan array binding signal (z-score within array); higher = stronger binding
# Conditions in all cases: glycan notation: IUPAC condensed, linker removed
# [1] = biological target: Fuc(a1-2)Gal
# Summary of the method: (§1)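 The binding signal is a Z-score computed within each array. Data were drawn from 3228 arrays in the Consortium for Functional Glycomics database, restricted to those with a known protein sequence. Scores were averaged over arrays of the same protein sequence at different concentrations or buffers, and over linkers, and negative values can be taken as non-binding.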
# [2] = biological target: Fuc(a1-2)Gal(b1-3)GalNAc
# Summary of the method: as §1
# [3] = biological target: Fuc(a1-2)Gal(b1-3)GalNAc(a1-3)[Fuc(a1-2)]Gal(b1-4)Glc
# Summary of the method: as §1
# [4] = biological target: Fuc(a1-2)Gal(b1-3)GalNAc(a1-3)[Fuc(a1-2)]Gal(b1-4)GlcNAc
# Summary of the method: as §1
# [5] = biological target: Fuc(a1-2)Gal(b1-3)GalNAc(b1-3)Gal
# Summary of the method: as §1
# [6] = biological target: Fuc(a1-2)Gal(b1-3)GalNAc(b1-3)Gal(a1-4)Gal(b1-4)Glc
# Summary of the method: as §1
# [7] = biological target: Fuc(a1-2)Gal(b1-3)GalNAc(b1-4)[Neu5Ac(a2-3)]Gal(b1-4)Glc
# Summary of the method: as §1
# [8] = biological target: Fuc(a1-2)Gal(b1-3)GlcNAc
# Summary of the method: as §1
# [9] = biological target: Fuc(a1-2)Gal(b1-3)GlcNAc(b1-2)Man(a1-3)[Fuc(a1-2)Gal(b1-3)GlcNAc(b1-2)Man(a1-6)]Man(b1-4)GlcNAc(b1-4)GlcNAc
# Summary of the method: as §1
# [10] = biological target: Fuc(a1-2)Gal(b1-3)GlcNAc(b1-2)Man(a1-3)[Fuc(a1-2)Gal(b1-3)GlcNAc(b1-2)Man(a1-6)]Man(b1-4)GlcNAc(b1-4)[Fuc(a1-6)]GlcNAc
# Summary of the method: as §1
# [11] = biological target: Fuc(a1-2)Gal(b1-3)GlcNAc(b1-3)Gal(b1-4)Glc
# Summary of the method: as §1
# [12] = biological target: Fuc(a1-2)Gal(b1-3)GlcNAc(b1-3)GalNAc
# Summary of the method: as §1
# [13] = biological target: Fuc(a1-2)Gal(b1-3)GlcNAc(b1-3)[Fuc(a1-2)Gal(b1-3)GlcNAc(b1-6)]GalNAc
# Summary of the method: as §1
# [14] = biological target: Fuc(a1-2)Gal(b1-3)GlcNAc(b1-3)[Gal(b1-4)GlcNAc(b1-6)]Gal(b1-4)Glc
# Summary of the method: as §1
# [15] = biological target: Fuc(a1-2)Gal(b1-3)GlcNAc(b1-3)[Neu5Ac(a2-6)Gal(b1-4)GlcNAc(b1-6)]Gal(b1-4)Glc
# Summary of the method: as §1
# [16] = biological target: Fuc(a1-2)Gal(b1-3)GlcNAc6S
# Summary of the method: as §1
# [17] = biological target: Fuc(a1-2)Gal(b1-3)[Fuc(a1-4)]GlcNAc
# Summary of the method: as §1
# [18] = biological target: Fuc(a1-2)Gal(b1-3)[Fuc(a1-4)]GlcNAc(b1-2)Man(a1-3)[Fuc(a1-2)Gal(b1-3)[Fuc(a1-4)]GlcNAc(b1-2)Man(a1-3)]Man(b1-4)GlcNAc(b1-4)GlcNAc
# Summary of the method: as §1
# [19] = biological target: Fuc(a1-2)Gal(b1-3)[Fuc(a1-4)]GlcNAc(b1-2)Man(a1-3)[Fuc(a1-2)Gal(b1-3)[Fuc(a1-4)]GlcNAc(b1-2)Man(a1-6)]Man(b1-4)GlcNAc(b1-4)[Fuc(a1-6)]GlcNAc(b1-4)[Fuc(a1-6)]GlcNAc
# Summary of the method: as §1
# [20] = biological target: Fuc(a1-2)Gal(b1-3)[Fuc(a1-4)]GlcNAc(b1-3)[Fuc(a1-3)[Gal(b1-4)]GlcNAc(b1-6)]Gal(b1-4)Glc
# Summary of the method: as §1
# [21] = biological target: Fuc(a1-2)Gal(b1-3)[Fuc(a1-4)]GlcNAc(b1-3)[Gal(b1-4)GlcNAc(b1-6)]Gal(b1-4)Glc
# Summary of the method: as §1
# [22] = biological target: Fuc(a1-2)Gal(b1-4)Fuc(a1-3)]GlcNAc(b1-2)Man(a1-3)[Fuc(a1-2)Gal(b1-4)[Fuc(a1-3)]GlcNAc(b1-2)Man(a1-6)]Man(b1-4)GlcNAc(b1-4)GlcNAc
# Summary of the method: as §1
# [23] = biological target: Fuc(a1-2)Gal(b1-4)Glc
# Summary of the method: as §1
# [24] = biological target: Fuc(a1-2)Gal(b1-4)Glc6S
# Summary of the method: as §1
# [25] = biological target: Fuc(a1-2)Gal(b1-4)GlcNAc
# Summary of the method: as §1
# [26] = biological target: Fuc(a1-2)Gal(b1-4)GlcNAc(b1-2)Man
# Summary of the method: as §1
# [27] = biological target: Fuc(a1-2)Gal(b1-4)GlcNAc(b1-2)Man(a1-3)[Fuc(a1-2)Gal(b1-4)GlcNAc(b1-2)Man(a1-6)]Man(b1-4)GlcNAc(b1-4)GlcNAc
# Summary of the method: as §1
# [28] = biological target: Fuc(a1-2)Gal(b1-4)GlcNAc(b1-2)Man(a1-3)[Fuc(a1-2)Gal(b1-4)GlcNAc(b1-2)Man(a1-6)]Man(b1-4)GlcNAc(b1-4)[Fuc(a1-6)]GlcNAc
# Summary of the method: as §1
# [29] = biological target: Fuc(a1-2)Gal(b1-4)GlcNAc(b1-2)[Fuc(a1-2)Gal(b1-4)GlcNAc(b1-4)]Man(a1-3)[Fuc(a1-2)Gal(b1-4)GlcNAc(b1-2)Man(a1-6)]Man(b1-4)GlcNAc(b1-4)GlcNAc
# Summary of the method: as §1
# [30] = biological target: Fuc(a1-2)Gal(b1-4)GlcNAc(b1-3)Gal(b1-4)GlcNAc
# Summary of the method: as §1
# [31] = biological target: Fuc(a1-2)Gal(b1-4)GlcNAc(b1-3)Gal(b1-4)GlcNAc(b1-2)Man(a1-3)[Fuc(a1-2)Gal(b1-4)GlcNAc(b1-3)Gal(b1-4)GlcNAc(b1-2)Man(a1-6)]Man(b1-4)GlcNAc(b1-4)GlcNAc
# Summary of the method: as §1
# [32] = biological target: Fuc(a1-2)Gal(b1-4)GlcNAc(b1-3)Gal(b1-4)GlcNAc(b1-3)Gal(b1-4)GlcNAc
# Summary of the method: as §1
# [33] = biological target: Fuc(a1-2)Gal(b1-4)GlcNAc(b1-3)GalNAc
# Summary of the method: as §1
# [34] = biological target: Fuc(a1-2)Gal(b1-4)GlcNAc(b1-3)[Fuc(a1-2)Gal(b1-4)GlcNAc(b1-6)]GalNAc
# Summary of the method: as §1
# [35] = biological target: Fuc(a1-2)Gal(b1-4)GlcNAc(b1-3)[Fuc(a1-3)[Gal(b1-4)]GlcNAc(b1-6)]Gal(b1-4)Glc
# Summary of the method: as §1
# [36] = biological target: Fuc(a1-2)Gal(b1-4)GlcNAc(b1-6)GalNAc
# Summary of the method: as §1
# [37] = biological target: Fuc(a1-2)Gal(b1-4)GlcNAc6S
# Summary of the method: as §1
# [38] = biological target: Fuc(a1-2)Gal(b1-4)[Fuc(a1-3)]GlcNAc
# Summary of the method: as §1
# [39] = biological target: Fuc(a1-2)Gal(b1-4)[Fuc(a1-3)]GlcNAc(b1-2)Man(a1-3)[Fuc(a1-2)Gal(b1-4)[Fuc(a1-3)]GlcNAc(b1-2)Man(a1-6)]Man(b1-4)GlcNAc(b1-4)[Fuc(a1-6)]GlcNAc
# Summary of the method: as §1
# [40] = biological target: Fuc(a1-2)Gal(b1-4)[Fuc(a1-3)]GlcNAc(b1-2)[Fuc(a1-2)Gal(b1-4)[Fuc(a1-3)]GlcNAc(b1-4)]Man(a1-3)[Fuc(a1-2)Gal(b1-4)[Fuc(a1-3)]GlcNAc(b1-2)Man(a1-6)]Man(b1-4)GlcNAc(b1-4)GlcNAc
# Summary of the method: as §1
# [41] = biological target: Fuc(a1-2)Gal(b1-4)[Fuc(a1-3)]GlcNAc(b1-3)Gal(b1-4)[Fuc(a1-3)]GlcNAc
# Summary of the method: as §1
# [42] = biological target: Fuc(a1-2)Gal(b1-4)[Fuc(a1-3)]GlcNAc(b1-3)Gal(b1-4)[Fuc(a1-3)]GlcNAc(b1-3)Gal(b1-4)[Fuc(a1-3)]GlcNAc
# Summary of the method: as §1
# [43] = biological target: Fuc(a1-2)Gal(b1-4)[Fuc(a1-3)]GlcNAc(b1-3)GalNAc
# Summary of the method: as §1
# [44] = biological target: Fuc(a1-2)Gal(b1-4)[Fuc(a1-3)]GlcNAc(b1-3)[Neu5Ac(a2-6)Gal(b1-4)GlcNAc(b1-6)]Gal(b1-4)Glc
# Summary of the method: as §1
# [45] = biological target: Fuc(a1-2)Gal3S(b1-4)GlcNAc
# Summary of the method: as §1
binder,measurement,setting,value
B1,glycan array binding signal (z-score),[1],-0.151
same,glycan array binding signal (z-score),[2],-0.156
same,glycan array binding signal (z-score),[3],-0.154
same,glycan array binding signal (z-score),[4],-0.157
same,glycan array binding signal (z-score),[5],-0.162
same,glycan array binding signal (z-score),[6],-0.154
same,glycan array binding signal (z-score),[7],-0.15
same,glycan array binding signal (z-score),[8],-0.153
same,glycan array binding signal (z-score),[9],-0.159
same,glycan array binding signal (z-score),[10],-0.143
same,glycan array binding signal (z-score),[11],-0.15
same,glycan array binding signal (z-score),[12],-0.159
same,glycan array binding signal (z-score),[13],-0.15
same,glycan array binding signal (z-score),[14],-0.154
same,glycan array binding signal (z-score),[15],-0.144
same,glycan array binding signal (z-score),[16],-0.14
same,glycan array binding signal (z-score),[17],-0.152
same,glycan array binding signal (z-score),[18],-0.144
same,glycan array binding signal (z-score),[19],-0.154
same,glycan array binding signal (z-score),[20],-0.151
same,glycan array binding signal (z-score),[21],-0.15
same,glycan array binding signal (z-score),[22],-0.143
same,glycan array binding signal (z-score),[23],-0.156
same,glycan array binding signal (z-score),[24],-0.15
same,glycan array binding signal (z-score),[25],-0.156
same,glycan array binding signal (z-score),[26],-0.149
same,glycan array binding signal (z-score),[27],-0.12
same,glycan array binding signal (z-score),[28],-0.146
same,glycan array binding signal (z-score),[29],-0.136
same,glycan array binding signal (z-score),[30],-0.14
same,glycan array binding signal (z-score),[31],-0.109
same,glycan array binding signal (z-score),[32],0.007
same,glycan array binding signal (z-score),[33],-0.145
same,glycan array binding signal (z-score),[34],-0.159
same,glycan array binding signal (z-score),[35],-0.146
same,glycan array binding signal (z-score),[36],-0.146
same,glycan array binding signal (z-score),[37],-0.156
same,glycan array binding signal (z-score),[38],-0.157
same,glycan array binding signal (z-score),[39],-0.147
same,glycan array binding signal (z-score),[40],-0.149
same,glycan array binding signal (z-score),[41],-0.16
same,glycan array binding signal (z-score),[42],-0.155
same,glycan array binding signal (z-score),[43],-0.14
same,glycan array binding signal (z-score),[44],-0.152
same,glycan array binding signal (z-score),[45],-0.159
